Experimental data reported in article PMC10726135.
The list shows a part of the results. At the low end of the ranking, values are background and their order means little. The protein was read in a cell extract, so binding may be indirect.

target: T1, HNF4alpha2 (COS-7 nuclear extract) (UniProt P41235); test: protein-binding microarray; conditions: COS-7 nuclear extract on double-stranded Agilent 4x180k PBM; binding buffer, salt, pH and temperature not given; high values mean tight binding; double strand, one strand shown; sequences stand for … in …GCCTAGGGAGATTAGAGTATCGGTCGA
T1 sequence: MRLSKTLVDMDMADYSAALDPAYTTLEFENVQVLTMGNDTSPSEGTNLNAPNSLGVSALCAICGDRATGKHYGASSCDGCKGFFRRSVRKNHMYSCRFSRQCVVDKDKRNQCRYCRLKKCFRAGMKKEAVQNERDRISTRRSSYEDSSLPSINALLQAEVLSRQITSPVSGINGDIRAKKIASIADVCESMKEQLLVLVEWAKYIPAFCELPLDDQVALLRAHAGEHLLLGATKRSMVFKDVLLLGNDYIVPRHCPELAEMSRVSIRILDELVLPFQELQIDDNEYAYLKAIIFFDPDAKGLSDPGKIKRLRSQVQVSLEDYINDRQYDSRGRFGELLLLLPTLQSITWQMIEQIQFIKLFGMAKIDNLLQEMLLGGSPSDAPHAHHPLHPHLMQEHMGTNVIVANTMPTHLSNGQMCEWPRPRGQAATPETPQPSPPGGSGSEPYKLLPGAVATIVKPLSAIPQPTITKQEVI

Sequence	binding signal (log2 normalized intensity)
AAGAGCATGGCGCCAGGGAGTGATTGCCCT	1.78
GCGCCGCGCCGGGGAAGCTGTTGGGCGCCG	1.76
GAGGGGCCTGTCAGGCCCAGAAACACTGAA	-1.09
CTCTTTCAACTTTCAACATTTAACTTAACC	1.24
CGCAGCAAGTTACACAAGTAGAATGAAAGC	-1.17
TAGGAATGTCATGCAGCTAAAAGCAGCATC	-1.3
CTGCACTGCAATGACAATAAATTATACCAA	-1.15
TTGGAGACGCAGAGAAGCACTGCAGTTTAA	-1.16
CATTAGGAGGAAAAAGAATGCCTCTTTCAA	-1.16
ATGGAGCTGGAGGGCAAAGGTCAGAGGCTG	6.39
GGCCTGGCCACTCCGTTTGCTATGGCCTTT	1.86
AACAAACATGAGGGACTGGGAAGAGAAGGT	-1.22
TCCAGCCCTGTCTCTCAGGTGTAACAGTTG	1.21
ACTGCCCGCTGGCCTCCCCATCCTCATGAC	2.7
TGAACTAACAATTCTTTCTGATAAGAGCAT	-1.08
GTCAATGGTAGAAAAGGAAATATCTTCGTA	-0.771
GGGGTCAGCAAAAATAGCCAAAATAAAGCA	-1.1
TTCCTGCTACAGAGCTCAGATTTCAAGGTG	-0.557
CTCAAATCTAGCCAATGATGCTAGCCAATA	-1.11
TTTAGCTTTAGTTCAGGGAAGAGGGCACTC	0.456
AGGGATTGTTTAGGTACAAAGTCCATTGGA	7.7
CTTGACTTTGGACTTTCAAAAGTTAAGGTC	3.32
TCCCGTCCCTGCCAAAGGTCAGAGTTGAAC	3.72
TCAATGGCCCCAGTGCACGTGCATGAGGCC	0.00807

Sequence	binding signal (log2 normalized intensity)
GAATTTTTCTGTATAAGACAACCTTTGTTC	4.46
TTTAACGGTCTGCCCTCTTGTCCTTCCCCT	3.08
AAATACAAGGACACTGAAAGGCATTCTGCC	-1.14
GTAAGGAAGACAAGACAAGGAAGTTAAGAG	-1.05
GCTGTTCCTTTCCTGCTGTTCCTTCAACAC	1.21
AACCCATCCACCCATCCAAAGGTCAGCAAT	4
GTTGGAATTTGGTCACAGAAAGTGACGTGC	1.69
TGTGCTCATGACAAAGAAATGTAACCTTTG	3.97
TTCTCCACTGGGAAGTAGAAGAAAGCTTCA	-1.08
ACATCAGCTGAGCAGAGAGGACCCTGTGAT	1.17
TTCCTGCCTGGTCCGCCCTTCCCCGCTCTC	2.46
GGATTTGGAGATCAGAGTCCAGCTGTGCCC	2.44
CCAGTTTGCATTTTCATGGACAGAGATTAT	-0.196
TAAGATTAGGTGCTGAGCAACTATAAAACA	-0.893
CCTTCAAGGATTAGCAGATAAATCTAGGCC	-0.975
GATATCCATCATGTTTATCTTCTGCTTTCA	-1.13
AACTTGTGTTCAGAGCTTGCTGCATTCCCC	1.44
CAACTAGGGCAAAGGTTAGCTTGGACAGAG	2.72
TGTGTAACATTCCACAGGAACCAAAGTCTA	1.66
TTTCTGTCTAGGTGCCAGAATTGCTGCTCC	-0.947
CAAAAGAGAAAACTCCCTCAGAGATGTTTA	-1.05
GGGCTGCGGAGGCGACTGCAGATTGACCTG	3.36
ACCGATTGTGTTTTAGGCAAACATTTGCGC	0.846
